In PubChem BioAssay AID1745853 (National Center for Advancing Translational Sciences (NCATS), 2022):
Some of the results follow. These are further read-outs of the screen, such as a control signal, another cell line or another target. No call is given for them.

How the values were obtained:
Experiment in all cases: Primary Screen for Target Class Profiling of Small Molecule Inhibitors of Methyltransferases
[1] = molecular target: Glycine N-methyltransferase (Homo sapiens) (UniProt Q14749); details: purified enzyme, MTase-Glo SAH luminescence; measured here: GNMT inhibition; at 40 µM; stronger effect = lower value
In short: (§1)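 Each enzyme was assayed with SAM and its substrate. SAH formation detected by MTase-Glo luminescence; single-point 40 uM screen[…].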

[2] = molecular target: Guanidinoacetate N-methyltransferase (Homo sapiens) (UniProt Q14353); details: purified enzyme, MTase-Glo SAH luminescence; measured here: GAMT inhibition; at 40 µM; stronger effect = lower value
In short: as §1

[3] = molecular target: Histamine N-methyltransferase (Homo sapiens) (UniProt P50135); details: purified enzyme, MTase-Glo SAH luminescence; measured here: HNMT inhibition; at 40 µM; stronger effect = lower value
In short: as §1

[4] = molecular target: Nicotinamide N-methyltransferase (Homo sapiens) (UniProt P40261); details: purified enzyme, MTase-Glo SAH luminescence; measured here: NNMT inhibition; at 40 µM; stronger effect = lower value
In short: as §1

[5] = molecular target: Phenylethanolamine N-methyltransferase (Homo sapiens) (UniProt P11086); details: purified enzyme, MTase-Glo SAH luminescence; measured here: PNMT inhibition; at 40 µM; stronger effect = lower value
In short: as §1
% is scaled to controls: 0 for no effect and ±100 for the full control effect.

Compound	activity change, negative = inhibition [1] [%]	activity change, negative = inhibition [2] [%]	activity change, negative = inhibition [3] [%]	activity change, negative = inhibition [4] [%]	activity change, negative = inhibition [5] [%]
CC(C)NC(=O)c1sc(=S)n2c1[nH]c(=O)c1ccc(C(=O)NC(C)CCc3ccccc3)cc12 (stereo not given)	-11.7	0	2.2	-16.6	-7.63
CC1(C(=O)NCc2ccccc2)Cn2c(ccc2-c2ccco2)C(=O)N1Cc1ccccc1Cl (stereo not given)	-1.86	0	2.68	-1.35	0.67
CC(C)(C)c1ccc(S(=O)(=O)NCCn2c(CCc3ccccc3)nc3ccccc32)cc1	-3.22	0	-2.61	-11.3	0.59
COC(=O)N1CC(CN2C(=O)c3c(c(C)nn3-c3ccccc3)C2C)C1 (stereo not given)	-4.22	-6.17	-0.791	-9.39	-5.36
CCCN(CCC)S(=O)(=O)c1cc2[nH]c(=O)[nH]c2cc1C	3.54	1.13	3.15	-2.92	0.256
CC1OC2O[C@H]3[C@@H](OCC(O)[C@H]3O)OC(=O)C34CCC(C)(C)CC3C3=CCC5C6(C)CC(O)C(OC7OC(CO)C(O)C(O)C7O[C@@H]7OC[C@H](OC(=O)CC(C)(O)CC(=O)OC1C(OC1OCC(O)C(O)C1O)C2O)[C@@H](O)[C@H]7O)C(C)(CO)C6CCC5(C)C3(C)CC4 (stereo not given in full)	2.01	22.9	3.89	-3.78	4.4
CSCc1noc(Cn2nc(C)c3ccccc3c2=O)n1	-3.06	-4.77	0.633	-4.24	-0.87
CC(C)CNC(=O)c1ccc2c(=O)n(C)c3nn(Cc4ccccc4Cl)c(=O)n3c2c1	-0.338	0.057	9.72	-2.76	2.96
COc1c2c(c(C)c3c1C(=O)OC3)O[C@@]1(C)C[C@@H](O)[C@]34O[C@](OC)(CC[C@]3(C)[C@H]1C2)OC4(C)C	-0.742	-2.93	0.127	-29.5	-1.06
Cc1cnc(CCNS(=O)(=O)c2cccc(F)c2)n1Cc1ccccc1	-1.25	-6.07	-13.1	-10.1	-4.21
Cc1ccc(NC(=O)CSc2nnc3n(CCc4ccccc4)c(=O)c4ccccc4n23)cc1	4.62	0	8.53	5.42	4.98
CCOC(=O)c1cc2n(n1)CC(C)(C(=O)NC1CCCCC1)N(Cc1ccccc1)C2=O (stereo not given)	-0.107	0.348	3.78	-5.69	-3.79
COc1cccc(CN2CCOC[C@H](Oc3ccc(C(F)(F)F)cn3)C2)c1	-7.14	-6.09	-2.03	-21.2	-31.7
CN(C)CCn1cc(-c2ccc(F)cc2)c(-n2cccc2)n1	-2.2	1.14	1.89	-13.7	-4.52
CCCC1c2cccn2CCN1C(=O)Nc1cccc(C)c1 (stereo not given)	-2.32	1.16	-13	-1.66	1.59
CO[C@H]1C[C@@H](O)C12CCN(C(=O)CCc1ccc(-c3cccs3)o1)CC2	-24.7	-10.4	-5.48	-14	-11
Cn1c2c(c3ccccc31)C(C(=O)NCc1ccccc1)N(c1ccccc1Cl)C(=O)CS2 (stereo not given)	4.85	0	2.73	-2.92	-0.574
O=C1CCC(N2C(=O)c3ccccc3C2=O)C(=O)N1 (stereo not given)	0.591	10.8	6.67	-4.14	6.21
COc1ccccc1CNc1nc2c(S(=O)(=O)c3ccc(Br)cc3)nnn2c2ccccc12	2.59	0	4.16	-2.87	-2.31
CCCn1c(=O)c2ccc(C(=O)NCC(C)C)cc2n2c(=O)n(Cc3ccccc3Cl)nc12	-4.32	3.75	1.47	-1.24	0.974
CC1(C(=O)NCc2ccccc2)Cn2c(ccc2-c2ccco2)C(=O)N1c1ccc(Br)cc1 (stereo not given)	-17.9	-2.59	-3.27	-18.9	-12.8
CC(C)CCn1c(=O)c2ccc(C(=O)NC3CCCCC3)cc2n2c(=O)n(Cc3ccccc3)nc12	9.11	2.39	11.5	7.63	9.65
Cc1cnc(CC2CCN(S(=O)(=O)c3ccc4c(c3)CCC4)CC2)n1CC1CC1	-9.3	-6	-42.6	-44.1	-8.71
CC(C)CCn1c(=O)c2ccccc2n2c(CCC(=O)N3CCN(c4cccc(Cl)c4)CC3)nnc12	-10.3	4.16	0.418	-46.3	-3.93
COc1ccccc1N1CCN(C(=O)CCc2nnc3n(Cc4ccc(F)cc4)c(=O)c4ccccc4n23)CC1	-8.97	2.35	-3.71	-5.36	-1.27
O=C(Nc1ccc(N2CCC(C(=O)N3CCOCC3)CC2)cc1)c1cnc(Oc2ccccc2)nc1	-5.32	-6.15	1.05	-19	-5.4
CCc1cc2c(cc3n2CC(C)(C(=O)NC2CCCCCC2)N(Cc2ccccn2)C3=O)s1 (stereo not given)	-1.78	7.35	2.54	-23.4	0.689
Cc1ccc(N2C(=O)c3ccc(-c4ccco4)n3CC2(C)C(=O)NCc2ccc(Cl)cc2)cc1F (stereo not given)	-5.97	4.74	2.73	-0.191	-2.87
